Data: PubChem BioAssay AID686970 (National Center for Advancing Translational Sciences (NCATS), 2013)
About 6,000 (1.7%) of roughly 360,000 compounds were called active. This list was built around the results that the source calls inconclusive (neither active nor inactive); the mix of calls is not that of the screen. Calls follow the shape of the dose curve; as a rule, active = well fitted cell-killing curve with a large enough effect; inconclusive = small, poorly fitted or top-dose-only effect, or effect the other way; inactive = flat fitted curve, though single readings scatter. Potencies of inconclusive entries are left out as doubtful fits.

Experiment: qHTS for induction of synthetic lethality in tumor cells producing 2HG: qHTS for the HT-1080-NT fibrosarcoma cell line;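 also: NT is the 2HG producing partner of a matched IDH1 knockdown line; nearly all actives have a fitted effect of over 55% in size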;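 as to activity, negative = less viability: 0% = DMSO-treated cells and -100% = media-only wells without cells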
Conditions: HT-1080-NT fibrosarcoma viability, CellTiter-Glo ATP luminescence, 48 h; activity, negative = less viability: at 46.1 µM (top of the series) unless noted
Summary of the method: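 HT-1080-NT; 750 cells/well; 5% FBS RPMI; 48 h compound, 37 degrees C; CellTiter-Glo luminescence; curve fitting and curve-class assignment.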
Potency is read from the fitted curve at half-maximal effect; tags tell the direction and shape of the fitted curve.

**Q.** For `O=C(CCSc1nc(-c2ccco2)cc(C(F)(F)F)n1)NCCc1ccccc1`, which Potency is on record?
**A.** The Potency was “inactive”.

**Q.** With `COC(=O)[C@@]12C[C@@H](CC(=O)NCCC(C)C)C(=O)N(Cc3cccc4ccccc34)C1=CCC(C)(C)C2` as the compound, how does the Potency read?
**A.** The Potency was inconclusive [cytotoxic, single point].

**Q.** Which Potency does the source give for `COc1ccc(CNc2nc(NCc3ccc(OC)cc3)c3[nH]cnc3n2)cc1` here?
**A.** The Potency was inconclusive [cytotoxic, single point].

**Q.** For `CCCOC(=O)c1ccc(NC(=O)c2cccc(S(=O)(=O)N3CCN(C(C)=O)CC3)c2)cc1`, which Potency is on record?
**A.** The Potency was inconclusive [cytotoxic, single point].

**Q.** Which Potency does the source give for `O=C(O)CC1(CC(=O)N2CCOCC2)CCCC1` here?
**A.** The Potency was “inactive”.

**Q.** Which Potency does the source give for `COc1ccccc1-c1oc2ccccc2c1C#CC1(N)CCCCC1` here?
**A.** Its Potency is “inactive”.

**Q.** With `Cn1c(C(=O)N(Cc2ccccc2)Cc2ccccn2)cc2sccc21` as the compound, how does the Potency read?
**A.** The Potency was inconclusive [cytotoxic, single point].

**Q.** Which Potency does the source give for `Cn1cnc([N+](=O)[O-])c1Oc1cccc2ccccc12` here?
**A.** The Potency was inconclusive [cytotoxic, partial curve].

**Q.** For `COc1ccccc1N1CCN(c2cc(=O)n(Cc3ccc(F)cc3)c(=O)[nH]2)CC1`, which Potency is on record?
**A.** The Potency was active: 11.6 µM.

**Q.** With `COc1ccc(C(C(=O)NC(C)(C)C)N(Cc2ccc(C)cc2)C(=O)CCC(=O)Nc2cc(C)on2)cc1` (centres undefined) as the compound, how does the Potency read?
**A.** The Potency was “inactive”.

**Q.** For `CC(=O)NS(=O)(=O)c1ccc(N=c2ssc3c2-c2cc(C)c(C)cc2NC3(C)C)cc1`, which Potency is on record?
**A.** The Potency was inconclusive [cytotoxic, partial curve].

**Q.** For `Cc1cc2cc(C)c3nnc(SCC(=O)Nc4ccc(S(=O)(=O)N5CCCCC5C)cc4)n3c2cc1C` (centres undefined), which Potency is on record?
**A.** Its Potency is “inactive”.

**Q.** With `CN(C)C(=O)/C(=C\c1ccncc1)NC(=O)c1ccccc1` as the compound, how does the Potency read?
**A.** Its Potency is inconclusive [rising, partial curve].

**Q.** With `O=C(Nc1nc2ccccc2[nH]1)c1cc(F)cc(F)c1` as the compound, how does the Potency read?
**A.** The Potency was inconclusive [cytotoxic, single point].

**Q.** Which Potency does the source give for `O=C(Nc1ccc2c(c1)OCO2)C1Cc2c(-c3ccc(Cl)cc3)ccnc2O1` (centres undefined) here?
**A.** The Potency was active: 23.1 µM.

**Q.** Which Potency does the source give for `CN(CC1CCCO1)S(=O)(=O)c1ccc(C(=O)Nc2nc(-c3ccccn3)cs2)cc1` (centres undefined) here?
**A.** The Potency was inconclusive [cytotoxic, partial curve].

**Q.** For `N#C/C(=C\c1ccc(O)cc1)c1nc2ccccc2o1`, which Potency is on record?
**A.** The Potency was inconclusive [cytotoxic, single point].

**Q.** For `Clc1cccc(Cl)c1/C=C/c1ccn[nH]1`, which Potency is on record?
**A.** The Potency was inconclusive [cytotoxic, single point].

**Q.** For `O=C(NCc1cccc(C(F)(F)F)c1)c1csc([C@@H]2C[C@H](O)[C@@H](CO)O2)n1`, which Potency is on record?
**A.** The Potency was “inactive”.

**Q.** Which Potency does the source give for `Cc1ccc(S(=O)(=O)N(CC(=O)N/N=C/c2ccco2)c2cc(Cl)cc(Cl)c2)cc1` here?
**A.** The Potency was inconclusive [cytotoxic, single point].

**Q.** Which Potency does the source give for `CC(C)(C)C(=O)Nc1ccc(NC(=O)c2ccco2)nc1` here?
**A.** The Potency was “inactive”.

**Q.** Which Potency does the source give for `OCCNc1nc(-c2ccccc2)c2ccccc2n1` here?
**A.** The Potency was “inactive”.

**Q.** Which Potency does the source give for `CCN(CC)S(=O)(=O)c1cccc(C(=O)Nc2ccc3c(c2)OCO3)c1` here?
**A.** The Potency was inconclusive [cytotoxic, partial curve].

**Q.** Which Potency does the source give for `CCc1nc2c(OCC3CCCCC3)cccn2c1N(C)C(=O)c1ccc(OC)cc1` here?
**A.** The Potency was inconclusive [cytotoxic, single point].

**Q.** Which Potency does the source give for `CC(=O)CCS(=O)(=O)c1ccc(NC(C)=O)cc1` here?
**A.** Its Potency is inconclusive [cytotoxic, single point].

**Q.** Which activity, negative = less viability does the source give for `CCN(CC)C(=O)c1cccc(-c2csc(C(O)c3cccc(OC)c3)n2)c1` (centres undefined) here?
**A.** Its activity, negative = less viability is inconclusive: -30.4% [cytotoxic].

**Q.** Which Potency does the source give for `COc1ccc(CCNC2CCC(c3ccccc3)CC2)cc1` (centres undefined) here?
**A.** Its Potency is active: 18.4 µM.

**Q.** Which Potency does the source give for `CC(C)N1C/C(=C/c2cccnc2)C(=O)/C(=C/c2cccnc2)C1` here?
**A.** The Potency was active: 6.51 µM.

**Q.** With `O=C(CNC(=O)c1ccccc1Br)N/N=C/c1cc(Br)ccc1O` as the compound, how does the Potency read?
**A.** The Potency was inconclusive [cytotoxic, partial curve].

**Q.** Which Potency does the source give for `CCCC(C)c1nnc(NC(=O)C2CC(=O)N(CCc3ccc(F)cc3)C2)s1` (centres undefined) here?
**A.** The Potency was “inactive”.

**Q.** Which Potency does the source give for `CN(CC(=O)Nc1cccc(S(=O)(=O)NC2=NCCCCC2)c1)Cc1ccc(C(C)(C)C)cc1` here?
**A.** The Potency was inconclusive [cytotoxic, single point].

**Q.** With `CC(=O)Nc1cc(-c2cccc(F)c2)cn2c(-c3ccc(F)c(Cl)c3)cnc12` as the compound, how does the Potency read?
**A.** Its Potency is inconclusive [cytotoxic, single point].

**Q.** Which Potency does the source give for `COc1ccc(-c2nc(C)c(C(C)=O)n2O)cc1` here?
**A.** Its Potency is “inactive”.

**Q.** Which Potency does the source give for `FC(F)(F)COc1nc(N2CCOCC2)nc(N(c2ccccc2)c2ccccc2)n1` here?
**A.** The Potency was inconclusive [cytotoxic, single point].

**Q.** With `Cc1ccc2[nH]c(C(=O)N3CCC(C(N)=O)CC3)cc2c1` as the compound, how does the Potency read?
**A.** The Potency was “inactive”.

**Q.** For `O=C(NCCCN1CCc2ccccc2C1)Nc1ccc(Br)cc1`, which Potency is on record?
**A.** Its Potency is inconclusive [cytotoxic, partial curve, poor fit].

**Q.** For `COc1ccc(N/C(=C/[N+](=O)[O-])SC)cc1`, which Potency is on record?
**A.** Its Potency is inconclusive [cytotoxic, partial curve].

**Q.** Which Potency does the source give for `CCN(CC)CCCNC(=O)CSc1nc2c(c(C(F)(F)F)n1)CCc1ccccc1-2` here?
**A.** The Potency was inconclusive [cytotoxic, single point].

**Q.** For `COC(=O)/C=C\C(=O)Nc1cccc([N+](=O)[O-])c1`, which Potency is on record?
**A.** The Potency was inconclusive [cytotoxic, single point].

**Q.** For `COc1cc(CCc2ccccc2)c(C(=O)O)c(O)c1C/C=C(/C)CCC=C(C)C`, which Potency is on record?
**A.** The Potency was inconclusive [cytotoxic, single point].

**Q.** With `Cc1ccc(S(=O)(=O)Nc2ccccc2OC(C(=O)OC(C)(C)C)C(=O)OC(C)(C)C)cc1` as the compound, how does the Potency read?
**A.** Its Potency is inconclusive [cytotoxic, single point].

**Q.** Which Potency does the source give for `CCN(CC)CCNc1ccnc2cc(Cl)ccc12` here?
**A.** Its Potency is inconclusive [cytotoxic, single point].

**Q.** With `Cn1c(-c2ccc3c(c2)OCO3)cnc1NCc1ccccc1` as the compound, how does the Potency read?
**A.** The Potency was inconclusive [cytotoxic, single point].

**Q.** For `Cn1c(=N)n(CC(=O)c2ccc(Br)cc2)c2ccccc21`, which Potency is on record?
**A.** Its Potency is inconclusive [cytotoxic, single point].

**Q.** For `O=C(N/N=C/c1ccc2c(c1)OCO2)c1ccc(Br)o1`, which Potency is on record?
**A.** Its Potency is inconclusive [cytotoxic, partial curve].

**Q.** With `O=C(NCc1cccnc1)c1ccc(-c2ccc(F)c(F)c2)c2ccoc12` as the compound, how does the activity, negative = less viability read?
**A.** Its activity, negative = less viability is inconclusive: -21.7% [cytotoxic].

**Q.** For `CCOC(=O)[C@H](CCc1ccccc1)N[C@@H](C)C(=O)N1[C@H](C(=O)O)C[C@@H]2CCC[C@@H]21`, which Potency is on record?
**A.** Its Potency is inconclusive [rising, single point].

**Q.** Which Potency does the source give for `O=C(Nc1ccc2ccccc2c1)C(c1ccccc1F)n1c(=O)c(-c2cc3ccccc3[nH]2)nc2ccccc21` (centres undefined) here?
**A.** The Potency was inconclusive [cytotoxic, single point].

**Q.** With `COc1ccc(NC(=O)COc2ccc(N(C)S(=O)(=O)c3ccc(Cl)cc3)cc2)cc1OC` as the compound, how does the Potency read?
**A.** Its Potency is “inactive”.

**Q.** With `O=C(Nc1ccc(Br)cc1)c1cccn1-c1ncc(C(F)(F)F)cc1Cl` as the compound, how does the Potency read?
**A.** The Potency was inconclusive [cytotoxic, single point].

**Q.** For `COc1ccc(/C=N/Nc2ncnc3sc4c(c23)CCCC4)cc1O`, which Potency is on record?
**A.** Its Potency is inconclusive [cytotoxic, single point].

**Q.** With `CN(C(=O)c1cccc(Br)c1)C1CCS(=O)(=O)C1` (centres undefined) as the compound, how does the Potency read?
**A.** The Potency was “inactive”.

**Q.** For `CCOC(=O)c1c(C)[nH]c(C(=O)CSc2nnc(CC(C)c3ccccc3)o2)c1C` (centres undefined), which Potency is on record?
**A.** Its Potency is inconclusive [cytotoxic, partial curve].

**Q.** With `NC(=O)c1cc(Br)cc(C2CCCCC2)c1O` as the compound, how does the Potency read?
**A.** Its Potency is inconclusive [cytotoxic, partial curve, poor fit].

**Q.** For `Cc1cnc(CNC(=O)CC2C(=O)NCCN2Cc2ccccc2C(F)(F)F)cn1` (centres undefined), which Potency is on record?
**A.** Its Potency is “inactive”.

**Q.** With `NCC(c1ccccc1)(c1ccccc1)c1ccccc1` as the compound, how does the Potency read?
**A.** The Potency was inconclusive [cytotoxic, single point].

**Q.** For `CC(=O)N1c2ccc3ccccc3c2C(C)CC12CCCCC2` (centres undefined), which Potency is on record?
**A.** Its Potency is inconclusive [cytotoxic, partial curve].

**Q.** Which Potency does the source give for `COc1ccc([C@@H]2Sc3ccccc3NC(=O)[C@@H]2O)cc1` here?
**A.** Its Potency is inconclusive [cytotoxic, single point].

**Q.** With `Cc1ccc(-c2n[nH]c(=O)c3ccccc23)cc1S(=O)(=O)Nc1ccc(F)cc1` as the compound, how does the Potency read?
**A.** The Potency was inconclusive [cytotoxic, single point].

**Q.** For `Cc1ccc2nc(NNC(=O)c3ccc(S(=O)(=O)N4CCc5ccccc5C4)cc3)sc2c1`, which Potency is on record?
**A.** The Potency was inconclusive [cytotoxic, partial curve].

**Q.** Which Potency does the source give for `COc1ccccc1NC1=C(N2CCCCC2)C(=O)c2ccccc2C1=O` here?
**A.** Its Potency is active: 4.61 µM.

**Q.** Which Potency does the source give for `CCCCN(C(=O)CSc1nc2ccccc2s1)c1c(N)n(CCCC)c(=O)[nH]c1=O` here?
**A.** The Potency was “inactive”.

**Q.** With `Cc1nc(C)c(C(=O)N2CCCC(C(=O)c3cc(F)ccc3F)C2)s1` (centres undefined) as the compound, how does the Potency read?
**A.** Its Potency is “inactive”.

**Q.** Which Potency does the source give for `COc1ccc(CNc2nc3c(c(=O)n(Cc4ccc(Br)cc4)c(=O)n3C)n2C)cc1` here?
**A.** The Potency was inconclusive [cytotoxic, single point].

**Q.** With `CC(C)Oc1ccc(CCC(=O)NNC(=S)Nc2ccccc2)cc1` as the compound, how does the Potency read?
**A.** Its Potency is “inactive”.

**Q.** With `Cc1ccc(C2CN=NC23CCc2ccccc2C3=O)cc1` (centres undefined) as the compound, how does the Potency read?
**A.** The Potency was “inactive”.

**Q.** With `COc1ccc(Nc2cc(C)c3c(O)cccc3n2)cc1` as the compound, how does the Potency read?
**A.** The Potency was inconclusive [cytotoxic, single point].

**Q.** With `Cc1ccc(C)c(N2CCN(C(=O)C3CCN(c4nc(C)cc(C)n4)CC3)CC2)c1` as the compound, how does the Potency read?
**A.** Its Potency is inconclusive [cytotoxic, single point].

**Q.** Which Potency does the source give for `Cc1ccc2c(c1)N(C)/C(=C/c1cccc[n+]1C)S2` here?
**A.** Its Potency is active: 20.6 µM.
